Each structure is given as a SMILES string. Among all 52,000 compounds or so, about 4,300 (8.3%) were called active. Cut-off read from the data, not from the text of the source: active = survival mostly below about 52% (no sharp cut-off); inactive = mostly above about 56%. This is one part of the list.

In this assay the test system is DeltatarO mutant. Put plainly: S. aureus survival, RN4220 and DeltatarO strains – OD600, teichoic acid synthesis inhibitors, primary screen (AID 463173). Conditions: S. aureus RN4220 wild type/DeltatarO growth, OD600, 18 h, hits give low values, screened at 18.75 µg/mL (by protocol).
In the case of `CCOc1ccc(CNC(=O)c2[nH]c3ccccc3c2Sc2ccc(C)cc2)cc1`, the survival was inactive: 105%.
Consider `Cc1ccc(C(=O)Nc2nc(-c3nnn(-c4cccc(Cl)c4C)c3C)ns2)cc1C`, for which the survival was inactive: 124%.
With `COc1cccc(-c2nc(CS(=O)(=O)CC(=O)NCCc3ccc(OC)c(OC)c3)c(C)o2)c1` the figure was inactive: 72%.
As for `Cn1c(=O)c2c(n3ncnc13)NC(=O)CC2c1cccc(F)c1` (stereo not given), the figure is inactive: 66%.
With `COc1ccc(NS(=O)(=O)c2ccc3c(c2)CC(C)N3C(C)=O)c(OC)c1` (stereo not given) the figure was inactive: 77%.
For `CCOC(=O)C1=C(CN2CCN(c3cccc(OC)c3)CC2)NC(=O)NC1c1ccc(OC)cc1` (stereo not given), the survival is inactive: 88%.
With `C=Cc1ccc(CSc2nnc(C)n3c2cc2occc23)cc1` the figure was active: 42%; with `COc1ccc(NC(=O)c2oc3c(c2C)-c2nn(Cc4ccccc4Cl)cc2CC3)cc1OC`, active: 53%.
With `Cc1ccc(-n2c(=O)c3c(cnn3C)n(CC(=O)Nc3c(C)cccc3C)c2=O)cc1` the figure was inactive: 85%.
Take `COc1ccc(CNC(=O)c2cc3c(=O)n4cccc(C)c4nc3s2)cc1`: the survival was inactive: 68%.
`Cc1ccc(C(=O)O/N=C(/c2nonc2N)N(C)C)cc1`: the survival is inactive: 107%.
On to `CCOC(=O)c1ccc(NC(=O)C(C)N(c2ccc(OCC)cc2)S(C)(=O)=O)cc1` (stereo not given), for which the survival was inactive: 62%.
As for `Cc1c(C(=O)Nc2ccc(F)c(F)c2)oc2ccc(S(=O)(=O)N(C)C3CCCCC3)cc12`, the figure is inactive: 95%; as for `COc1ccc(CCNC(=O)CCCCn2c(=O)c3ccccc3n(Cc3ccc(Cl)cc3)c2=O)cc1OC`, inactive: 70%; as for `COc1cccc(CNC(=O)c2oc3ccc4c(c3c2C)C(=O)CC(C)(C)O4)c1OC`, inactive: 90%.
`CCN(CC)CCn1c2c(c(SCC(=O)Nc3cccc(C(F)(F)F)c3)nc1=O)CCC2`: the survival is inactive: 74%.
As for `CCOc1ccc(-c2cn3c(n2)sc2cc(C(=O)NCCCN(CC)CC)ccc23)cc1`, the figure is active: 15%.
As for `Cc1cccc(CNC(=O)Cc2ccc(NC(=O)N3CCCCc4ccccc43)cc2)c1`, the figure is inactive: 80%; as for `Cc1ccc(N(C)C(=O)Cn2cc(S(=O)(=O)N3CCCC3)c(S(=O)(=O)N3CCCC3)c2)cc1`, inactive: 67%; as for `COc1ccc(-c2sccc2C(C)C(=O)O)cc1` (stereo not given), inactive: 99%.
With `Cc1cc(C)cc(C(=O)Nc2ccc(N3CCN(S(C)(=O)=O)CC3)cc2)c1` the figure was inactive: 63%; with `Cc1ccccc1NC(=O)CSc1nc2ccc(NC(=O)c3ccccc3)cc2s1`, inactive: 64%.
As for `CC(=O)OCc1cnc(C)c2oc(=O)c(C(=O)Nc3ccc(C)cc3Cl)cc12`, the survival is inactive: 128%.
As for `CCCOC(=O)C(N)c1ccccc1` (stereo not given), the figure is inactive: 100%.
For `CC1CCC(Nc2ncnc3onc(-c4ccc(Cl)cc4)c23)CC1` (stereo not given), the survival was active: 47%.
As for `COc1ccc(-c2coc3c2c(C)cc2oc(=O)c(C)c(C)c23)cc1`, the figure is inactive: 73%.
As for `CC(C)(O)c1cc(=O)sc2nc3ccccc3n12`, the figure is inactive: 83%.
For the compound `Cc1nnc(NCc2ccco2)s1`, the survival is inactive: 73%.
As for `O=C(CCc1ccccc1)Nc1nccs1`, the figure is inactive: 95%; as for `CCCn1cnc2c1c(=O)n(C)c(=O)n2C`, inactive: 87%; as for `CCCCN1C(=O)CN(C2CCCCCC2)C(=O)C1c1ccc(OC(C)C)c(OC)c1` (stereo not given), inactive: 120%.
`COc1ccc(C(=O)n2nc(C)cc2C)cc1`: the survival is inactive: 80%.
As for `Cc1cccc(OCC(=O)Nc2ccc3nc(Nc4cccc(C(F)(F)F)c4)cc(C)c3c2)c1`, the figure is inactive: 101%; as for `COc1ccc(NC(=O)Cn2cnc3ccc(S(=O)(=O)N4CCC(C)CC4)cc3c2=O)cc1Cl`, inactive: 115%; as for `Cc1ccc(-n2ccnc(NCCc3ccc(S(N)(=O)=O)cc3)c2=O)c(C)c1`, inactive: 102%.
Consider `CC(=O)Nc1ccc(C2=CSC3=NCCN23)cc1`, for which the survival was inactive: 82%.
`CC(C)(C)OC(=O)N1CCC(c2c(C(=O)NCCN3CCCC3)cnn2-c2ccc(Cl)cc2)CC1`: the survival was inactive: 75%.
With `CCOc1ccc(NC(=O)Cn2cc(C(=O)c3ccc(F)cc3)c(=O)c3cc4c(cc32)OCCO4)cc1`, the survival was inactive: 65%.
As for `Cc1ccc(-n2ncc(C(=O)N3CCN(Cc4ccccc4)CC3)c2C2CCN(C(=O)OC(C)(C)C)CC2)cc1`, the figure is inactive: 123%; as for `CC(=O)c1cc(-c2ccccc2)n(CCC(=O)Nc2ccc(C(C)C)cc2)c1C`, inactive: 94%.
As for `CC(=O)c1cc2c(cc1N/C(=N/S(=O)(=O)c1ccccc1)c1ccc(Cl)cc1)OCO2`, the figure is active: 0%; as for `COc1ccccc1OCCn1c(C(C)Oc2ccccc2)nc2ccccc21` (stereo not given), inactive: 66%; as for `COc1ccccc1-c1nnc(SCC(N)=O)o1`, inactive: 89%.
As for `CCN(CC)CCNC(=O)c1ccc(-c2nc(CS(=O)(=O)c3ccc(C)cc3)c(C)o2)cc1`, the figure is inactive: 84%; as for `CC(C)c1ccc(NC(c2nnc(-c3ccccc3)o2)c2ccc(F)cc2Cl)cc1` (stereo not given), inactive: 84%.
`Cc1oc(-c2ccc(C(=O)NCc3ccc(F)cc3)cc2)nc1CS(=O)c1ccccc1` (stereo not given): the survival was inactive: 86%.
As for `CCOc1ccc(/C=C/c2nc(C#N)c(NC3CCCCC3)o2)cc1`, the survival is inactive: 65%.
As to `Cc1cccc(C(=O)Nc2cc3c(cc2N2CCOCC2)n(C)c(=O)n3C)c1`, the survival was inactive: 85%.
With `CCOc1ccc(NC(=O)Cn2cc(C(=O)c3ccc(C)cc3)c(=O)c3cc4c(cc32)OCCO4)cc1` the figure was inactive: 127%; with `O=C(O)CC(NS(=O)(=O)c1ccc(Br)s1)c1ccccc1` (stereo not given), inactive: 82%; with `O=C(NCCCN1CCN(c2ccccc2)CC1)c1nnc(Cc2ccc(F)cc2)o1`, inactive: 83%.
As for `CCN1C(C(=O)c2ccccc2)=C(OC(=O)COc2ccccc2)c2ccccc2S1(=O)=O`, the figure is active: 41%; as for `Nc1c(-c2nc(-c3ccccc3)cs2)c2ccccn2c1C(=O)c1ccc2c(c1)OCO2`, inactive: 68%.
As for `CC1=C(C(=O)Nc2cc(C)ccc2C)C2(CCCCCC2)OC1=O`, the figure is inactive: 89%; as for `Cc1cc(C)c(S(=O)(=O)N2CCN(Cc3nc4ccc(C)cc4o3)CC2)c(C)c1`, inactive: 92%; as for `Cc1onc(-c2ccc(Br)cc2)c1C(=O)Nc1ccc(Br)cc1F`, inactive: 86%.
With `CCOC(=O)c1scc(-c2ccc(C)cc2)c1S(=O)(=O)Nc1cccc(CC)c1`, the survival was inactive: 77%.
With `Cc1cccc(C(=O)Nc2cccnc2)c1` the figure was inactive: 102%; with `NC(CCc1nc2ccccc2[nH]1)C(=O)O` (stereo not given), inactive: 77%; with `COc1ccc(-n2c(SCC(=O)Nc3nnc(C)s3)nc3c([nH]c4ccccc43)c2=O)cc1`, inactive: 83%.
With `COc1cccc2sc(N3CCN(C(=O)CS(=O)(=O)c4ccc(Cl)cc4)CC3)nc12` the figure was active: -4%; with `CC(C)N(C(=O)c1cc2c(Cl)nc3ccccc3c2s1)C1CCCCC1`, active: 16%; with `O=C(NCCc1ccccc1)c1c(O)c2cccc3c2n(c1=O)CC3`, inactive: 79%.
`CCC1SC(C)C/C(=N\O)C1C` (stereo not given): the survival is inactive: 105%.
As for `Cc1cc(C)cc(NC(=O)C2CCN(c3cc(C)nc4c(-c5ccc(Cl)cc5)c(C)nn34)CC2)c1`, the figure is inactive: 86%.
For `Cc1ccc(S(=O)(=O)c2nnn3c2nc(NCc2cccs2)c2sccc23)cc1C`, the survival is inactive: 32%.
Take `COC(=O)C(C)NC(=O)N1CCN(c2nnc(C)c3c(C)n(-c4ccc(Cl)cc4)nc23)CC1` (stereo not given): the survival was inactive: 102%.
As for `Cc1cccc(CS(=O)(=O)c2ncc(Cl)c(C(=O)Nc3nc4ccc(F)cc4s3)n2)c1`, the figure is active: -1%; as for `Cn1nnnc1SCCNCc1ccccc1OCc1ccc(Cl)cc1Cl`, inactive: 63%; as for `CC(C)OCCCN(C)C1CCN(S(=O)(=O)c2csc(C(N)=O)c2)CC1`, inactive: 74%.
Turning to `CCOCCCNC(=O)Nc1cc(C(=O)NCc2ccc(C(C)C)cc2)ccc1N1CCCC1`, the survival is inactive: 87%.
As for `Cc1ccc(N2CCN(S(=O)(=O)c3ccc4oc(=O)c5ncn(C)c5c4c3)CC2)c(C)c1`, the figure is inactive: 128%; as for `COc1ccc(-n2c(C)nc3cc(C(=O)NC4CCCC4)ccc32)cc1`, inactive: 77%; as for `Cc1cccc(-c2nnc(SCC(=O)N3CCCc4ccccc43)o2)c1`, active: 11%.
`COc1cc2c(cc1OC)C(COc1ccc(F)cc1)N(C(=O)c1ccccc1F)CC2` (stereo not given): the survival is inactive: 71%.
With `Cc1ccc2nc(NC(=O)C(C)C)sc2c1` the figure was inactive: 75%; with `Cc1ccccc1-c1nc(CS(=O)(=O)CC(=O)Nc2cccc(C(F)(F)F)c2)c(C)o1`, inactive: 112%; with `Cc1ccc(S(=O)(=O)NCCc2sc3nc(-c4ccccc4)nn3c2C)cc1C`, inactive: 76%.
With `COc1ccc2c(c1)c1c(c(=O)n(Cc3ccccc3)c(=O)n1CC(=O)Nc1c(C)cccc1C)n2C` the figure was inactive: 72%.
As for `O=C(c1cccc(Cl)c1)N(Cc1ccco1)Cc1ccccc1Cl`, the figure is active: 32%; as for `CCc1nc2onc(C)c2c(=O)n1CC(=O)O`, inactive: 103%.
`CCOC(=O)c1[nH]c(Cc2[nH]c(C(=O)OCC)c(C)c2CC(=O)OC)c(CCC(=O)OC)c1C`: the survival is inactive: 70%.
With `COC(=O)c1ccc(C(=O)O)s1` the figure was inactive: 93%; with `Cn1cnnc1SC1CCCCC1NS(=O)(=O)c1ccc(Cl)cc1` (stereo not given), inactive: 66%; with `O=S(=O)(Nc1cccc(-c2ccc(N3CCCCCC3)nn2)c1)c1ccccc1`, active: 6%.
As for `Cc1oc(-c2cccc(Br)c2)nc1Cn1c(=O)cc(-c2ccccc2)c2c(C)nn(C)c21`, the figure is inactive: 88%; as for `CC(C)(C)c1ccc(OCCCC(=O)N2CCOCC2)cc1`, inactive: 96%.
For `COc1ccc(-c2noc(Cn3c(=O)c4ccccc4n(CC(=O)Nc4cccc(C(F)(F)F)c4)c3=O)n2)cc1`, the survival was inactive: 92%.
On to `CC(C)NC(=O)N1CCC(N2CCN(Cc3ccc(F)cc3)C(=O)C2=O)CC1`, for which the survival is inactive: 101%.
With `CCOc1ccc(N(CC)S(=O)(=O)N2CCCC(C(=O)NCc3ccc(Cl)cc3)C2)cc1` (stereo not given) the figure was inactive: 69%.
